Reference: publication PMC9911399, “Two distinct binding modes provide the RNA-binding protein RbFox with extraordinary sequence specificity”
Where a chain is given by its changes, count along the chain named. This is one part of the list.

T1: RBFOX1 RRM (Homo sapiens, UniProt Q9NWB1 109-208)
T1 sequence: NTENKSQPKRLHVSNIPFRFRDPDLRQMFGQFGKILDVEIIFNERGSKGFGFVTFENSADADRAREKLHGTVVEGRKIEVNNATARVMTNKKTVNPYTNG

B1: UGAACCA (DNA:RNA)
RNA: GGGAGACCGGAAUUCAGAUUGUCCUGAACCAUUAAAUCCCGUCGUAGCCACCA
DNA 1: CAATCTGAATTCCGGTCTCCC
DNA 2: TGGTGGCTACGACGGGATT
B2: AUAUCAC (DNA:RNA)
RNA: B1 RNA with U25A, G26U, A28U, C30A, A31C
DNA 1: CAATCTGAATTCCGGTCTCCC
DNA 2: TGGTGGCTACGACGGGATT
B3: CAUUCAC (DNA:RNA)
RNA: B1 RNA with U25C, G26A, A27U, A28U, C30A, A31C
DNA 1: CAATCTGAATTCCGGTCTCCC
DNA 2: TGGTGGCTACGACGGGATT
B4: GCGGGCG (DNA:RNA)
RNA: B1 RNA with U25G, G26C, A27G, A28G, C29G, A31G
DNA 1: CAATCTGAATTCCGGTCTCCC
DNA 2: TGGTGGCTACGACGGGATT
B5: UGAUGAC (DNA:RNA)
RNA: B1 RNA with A28U, C29G, C30A, A31C
DNA 1: CAATCTGAATTCCGGTCTCCC
DNA 2: TGGTGGCTACGACGGGATT
B6: UCGCUCC (DNA:RNA)
RNA: B1 RNA with G26C, A27G, A28C, C29U, A31C
DNA 1: CAATCTGAATTCCGGTCTCCC
DNA 2: TGGTGGCTACGACGGGATT
B7: CAGCACA (DNA:RNA)
RNA: B1 RNA with U25C, G26A, A27G, A28C, C29A
DNA 1: CAATCTGAATTCCGGTCTCCC
DNA 2: TGGTGGCTACGACGGGATT
B8: GAUGUCC (DNA:RNA)
RNA: B1 RNA with U25G, G26A, A27U, A28G, C29U, A31C
DNA 1: CAATCTGAATTCCGGTCTCCC
DNA 2: TGGTGGCTACGACGGGATT
B9: AGUUUGU (DNA:RNA)
RNA: B1 RNA with U25A, A27U, A28U, C29U, C30G, A31U
DNA 1: CAATCTGAATTCCGGTCTCCC
DNA 2: TGGTGGCTACGACGGGATT
B10: UAGAAGU (DNA:RNA)
RNA: B1 RNA with G26A, A27G, C29A, C30G, A31U
DNA 1: CAATCTGAATTCCGGTCTCCC
DNA 2: TGGTGGCTACGACGGGATT
B11: GUCACAA (DNA:RNA)
RNA: B1 RNA with U25G, G26U, A27C, C30A
DNA 1: CAATCTGAATTCCGGTCTCCC
DNA 2: TGGTGGCTACGACGGGATT
B12: AGAGCUA (DNA:RNA)
RNA: B1 RNA with U25A, A28G, C30U
DNA 1: CAATCTGAATTCCGGTCTCCC
DNA 2: TGGTGGCTACGACGGGATT
B13: UCGUAGU (DNA:RNA)
RNA: B1 RNA with G26C, A27G, A28U, C29A, C30G, A31U
DNA 1: CAATCTGAATTCCGGTCTCCC
DNA 2: TGGTGGCTACGACGGGATT
B14: CUAAAAA (DNA:RNA)
RNA: B1 RNA with U25C, G26U, C29A, C30A
DNA 1: CAATCTGAATTCCGGTCTCCC
DNA 2: TGGTGGCTACGACGGGATT
B15: GAGUGCU (DNA:RNA)
RNA: B1 RNA with U25G, G26A, A27G, A28U, C29G, A31U
DNA 1: CAATCTGAATTCCGGTCTCCC
DNA 2: TGGTGGCTACGACGGGATT
B16: AGGUUUU (DNA:RNA)
RNA: B1 RNA with U25A, A27G, A28U, C29U, C30U, A31U
DNA 1: CAATCTGAATTCCGGTCTCCC
DNA 2: TGGTGGCTACGACGGGATT
B17: GCGGGUU (DNA:RNA)
RNA: GGGAGACCGGAAUUCAGAUUGUCCGCGGGUUUUAAAUCCCGUCGUAGCCACCA
DNA 1: CAATCTGAATTCCGGTCTCCC
DNA 2: TGGTGGCTACGACGGGATT
B18: CCCGUUA (DNA:RNA)
RNA: B17 RNA with G25C, G27C, G29U, U31A
DNA 1: CAATCTGAATTCCGGTCTCCC
DNA 2: TGGTGGCTACGACGGGATT
B19: ACAUCAA (DNA:RNA)
RNA: B1 RNA with U25A, G26C, A28U, C30A
DNA 1: CAATCTGAATTCCGGTCTCCC
DNA 2: TGGTGGCTACGACGGGATT
B20: CUGAAAC (DNA:RNA)
RNA: B17 RNA with G25C, C26U, G28A, G29A, U30A, U31C
DNA 1: CAATCTGAATTCCGGTCTCCC
DNA 2: TGGTGGCTACGACGGGATT

Each binder was assayed against T1, RBFOX1 RRM (assay: EMSA; HiTS-Eq, 1 nM pool, 10 min; buffer printed only for the single-RNA assays: 10 mM Tris pH 7.5, 150 mM NaCl, 3.4 mM EDTA, 0.001% NP-40, 30 C). Details: tags: His6 N-terminal (pET28a); label: 5' 32P.
How it was run: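 A pool of RNA with 7 randomized nucleotides, 5′-radiolabelled and with DNA-annealed flanks, was equilibrated at 1 nM for 10 min in 50 µL with purified RbFox RRM, wild type or mutant, across increasing protein concentrations. Free RNA was separated by 8% native PAGE, excised, reverse-transcribed, barcoded by PCR and sequenced. Relative association constants were obtained from read-count changes of each RNA species versus the control reaction and normalised to the cognate motif.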
In the case of B1, the binding signal is reported as 0.00574 KA relative to UGCAUGU.
B2 was tested, and the binding signal was 0.00152 KA relative to UGCAUGU.
B3 was tested, and the binding signal was 0.00217 KA relative to UGCAUGU.
With B4 the binding signal was 0.0182 KA relative to UGCAUGU.
For B5, the binding signal was 0.0158 KA relative to UGCAUGU.
With B6 the binding signal was 0.0108 KA relative to UGCAUGU.
With B7 the binding signal was 0.00422 KA relative to UGCAUGU.
For B8, the binding signal was 0.0161 KA relative to UGCAUGU.
In the case of B9, the binding signal is reported as 0.0142 KA relative to UGCAUGU.
B10 was tested, and the binding signal was 0.00918 KA relative to UGCAUGU.
B11 was tested, and the binding signal was 0.00457 KA relative to UGCAUGU.
With B12 the binding signal was 0.00515 KA relative to UGCAUGU.
With B13 the binding signal was 0.00796 KA relative to UGCAUGU.
In the case of B14, the binding signal is reported as 0.000629 KA relative to UGCAUGU.
With B15 the binding signal was 0.0186 KA relative to UGCAUGU.
In the case of B16, the binding signal is reported as 0.0127 KA relative to UGCAUGU.
B17 was tested, and the binding signal was 0.0192 KA relative to UGCAUGU.
With B18 the binding signal was 0.000809 KA relative to UGCAUGU.
In the case of B19, the binding signal is reported as 0.00158 KA relative to UGCAUGU.
In the case of B20, the binding signal is reported as 0.00729 KA relative to UGCAUGU.
